# Laboratory results from PubChem BioAssay AID1956 (SRMLSC, 2009).
# The list shows a part of the results. Further columns of the screen follow, without active or inactive calls.
# Assay: enhancers of HSV replication in host cells, fold increase, host cell viability (AID 1956); further: tested in PC3 cells
# Conditions: HSV replication augmentation in cells; fold increase: measured here: primary screen fold increase 10 uM, at 10 µM, stronger effect = higher value; viability: measured here: host cell viability series, at 25 µM, stronger effect = lower value
SMILES,fold increase,viability [%]
Cc1ccc(NC(=S)NCCC(c2ccccc2)c2ccccc2)c(C)c1,1.09,
O=[N+]([O-])c1ccc(/C=N/Nc2ccc3ccccc3c2)o1,2.03,91.6
N#CC1=C(N)C(C#N)(C#N)[C@H](c2ccsc2)[C@H]2COCC=C12,1.32,89
COC(=O)c1ccccc1NC(=O)Oc1ccc(C(C)C)cc1,1.51,97.6
COc1cc(/C=N/N2C(=O)CSC2=S)cc(Br)c1O,2.89,90.7
CCN(CC)c1ccc2c(Cl)cc(=O)oc2c1,1.08,89.9
N#C/C(=C\c1c(N2CCC(C(N)=O)CC2)nc2ccccn2c1=O)S(=O)(=O)c1ccc(Cl)cc1,1.36,96.2
C=CCN1C(=O)/C(=C/C=C2/N(CC)c3ccc(S(=O)(=O)N(C)C)cc3N2CC)SC1=S,5.57,
CCN(CC)c1ccc(/C=C(/C#N)c2nc3ccc(C)cc3[nH]2)c(OC(C)C)c1,6.39,70.4
Cc1ccc(N=Cc2c(O)n(-c3nccs3)c(=O)c3ccccc23)c(C)c1,2.54,69.8
CCOc1ccc(NC(=O)COc2nsnc2N2CCCCC2)cc1,1.45,102
CCO/C=C1\SC(=S)N(c2ccc(Cl)cc2)C1=O,1.6,97.7
COc1cc(/C=C2/SC(=S)N(CC3CCCO3)C2=O)ccc1O (stereo unspecified),9.28,
CC(=O)c1sc(N/N=C\c2ccc(Br)cc2)nc1C,2.91,94.1
O=c1c2ccccc2ncn1-c1ccccc1F,1.38,103
Cc1ccc(C(=O)N/N=C\c2cc(Br)c(Br)o2)cn1,1.4,85.1
CSc1ccc(C2C(C#N)=C(N)Oc3c2ccc(=O)c2c(C)oc(C)c32)cc1 (stereo unspecified),3.63,88.5
COc1ccc(C2C(C#N)=C(N)SC(N)=C2C#N)cc1OC,1.39,95.4
N#Cc1cc(C(=O)c2cc(Cl)ccc2O)cn(-c2ccccc2)c1=O,1.52,85.7
Cc1ccc(O)c(C(=O)c2cc(C#N)c(=O)n(-c3nccs3)c2)c1,2.21,
Fc1ccc(-c2cc(C(F)(F)F)nc(-n3cncn3)n2)cc1,1.34,94.9

SMILES,fold increase,viability [%]
CC(C)CC(C(=O)Nc1oc(-c2ccccc2)c(-c2ccccc2)c1C#N)N1C(=O)c2ccccc2C1=O (stereo unspecified),1.17,
COc1cc(/C=C2/S/C(=N/S(=O)(=O)Cc3ccccc3)NC2=O)c([N+](=O)[O-])cc1OC,1.19,
COc1ccc(NC(=O)Oc2cc(C)ccc2C(C)C)cc1,1.33,95.7
O=C(O)/C=C/C(=O)Nc1ccc(Cl)cc1C(=O)c1ccccc1,1.57,93.8
O=C1C=C(Nc2cccc(O)c2)CC(c2ccco2)C1 (stereo unspecified),1.33,92.5
Cc1cc(C)cc(NC(=O)C(OC(=O)C2=COCCO2)c2ccccc2)c1 (stereo unspecified),1.41,99.3
COC(=O)c1cc(NC(=O)c2cccc(Cl)c2)c(=O)oc1/C=C/Nc1cc(C)cc(C)c1,8.89,
Cc1cccn2c(=O)c(/C=C3\SC(=S)NC3=O)c(NCCCN3CCOCC3)nc12,2.15,85.9
CC(C)C(C)NC(=O)CN1C(=O)NC2(CCCCCC2)C1=O (stereo unspecified),1.35,95.4
O=c1c2ccccc2sc2ccc(NCCCN3CCOCC3)cc12,1.45,89.3
COC(=O)C1=NN(C(=O)c2cccc(Br)c2)C(O)(c2ccc(Cl)cc2)C1 (stereo unspecified),1.37,101
CN1CC=C2C(C#N)=C(N)C(C#N)(C#N)[C@H](c3cccs3)[C@H]2C1,1.55,
CCN(CC)S(=O)(=O)c1ccc(C)c(NC(=O)COc2ccc(Br)cc2Cl)c1,1.49,93.5
CSc1nc(N2CCOCC2)c2ccccc2n1,1.54,93.3
Cc1cc(N/N=C/c2ccc([N+](=O)[O-])o2)nc2ccccc12,1.54,
CCNc1ccc2noc3c2c1C(=O)c1ccccc1-3,5.97,79.5
CCSc1nnc2c(n1)OC(c1ccc(C(=O)O)cc1)N(C(C)=O)c1ccccc1-2 (stereo unspecified),1.32,101
Cc1cc(C)n(-c2ccc(C(=O)OCn3nnc4ccccc4c3=O)cc2)n1,1.45,94.2
COc1cccc(C(=O)Nc2nc(-c3ccccc3)c(-c3ccccc3)o2)c1,1.34,
CCN1/C(=C/c2ccc3cc(C)ccc3[n+]2C)Sc2ccc3sccc3c21,2.12,2.43
N#Cc1c(C(F)(F)F)cc(-c2ccco2)nc1SCc1ccncc1,1.46,99.4

SMILES,fold increase,viability [%]
COc1cc(N2CCCC2)c(OC)cc1/C=C1/NC(=S)NC1=O,3.94,
Cc1ccc(CCC(=O)Nc2ncc(Cc3cccc(Cl)c3Cl)s2)o1,1.67,
O=C(CSc1ncn[nH]1)Nc1c(Br)cc([N+](=O)[O-])cc1Br,1.34,98.1
Cc1cc(-n2cnc(-c3cn[nH]c3C)n2)no1,1.35,96.6
CCc1ccc(C(=O)/C=C/NCc2ccc(F)cc2)cc1,1.34,105
Cc1cc(C)nc(NC2=NCC(=O)N2CCc2c[nH]c3ccccc23)n1,1.21,
CCOc1cc(/C=C2/SC(=S)NC2=O)ccc1OC(=O)c1ccco1,2.99,90.7
CC(C)(C)c1cc(C(=O)NN)n(Cc2ccc(Cl)cc2Cl)n1,1.42,92.4
Cc1ccn2c(Nc3ccc4c(c3)OCO4)c(-c3ccccn3)nc2c1,1.61,
Cn1c(Cn2c(=O)sc3ccccc32)nnc1SCC(=O)NCCc1ccccc1,1.37,97.6
CCn1c(C)c(C2=CCN(S(=O)(=O)c3ccc(C)cc3)CC2)c2ccccc21,1.38,88.1
CN(C)c1ccc(/C=C(/C#N)C(=O)NCc2ccccc2)o1,3.52,
COc1cc(/C=C(\C#N)c2nc3ccccc3n2C)cc(OC)c1O,8.12,92.3
COc1ccc(Nc2ccccc2N)cc1,1.78,
N#Cc1c(-c2ccccc2F)cc(C2CC2)nc1SCC(=O)c1cccs1,2.33,
COCCCn1c(=O)/c(=C\c2ccccc2OC(F)F)s/c1=C(/C#N)C(=O)NC(C)C,1.86,96.8
CN(C)S(=O)(=O)c1cccc(-c2nn(-c3ccccc3)cc2/C=C2\SC(=S)NC2=O)c1,1.34,68.3
O=C(Nc1ccc2[nH]c(=S)sc2c1)Nc1ccccc1F,1.39,
COCCNC(=O)C(=O)c1cc(C)n(-c2ccc([N+](=O)[O-])cc2)c1C,1.6,90.4
C=CCOc1cccc(C2c3c(oc4ccc(F)cc4c3=O)C(=O)N2CCCN2CCOCC2)c1 (stereo unspecified),1.35,98.2
